# Assay results reported in the supplement of paper PMC11417369.
# The list shows a part of the results.
# Test system: PfSIP2 AP2 domain 1 (GST-tagged)
# Assay: gcPBM binding intensity (ln(normalized median fluorescence intensity)); higher = stronger DNA binding
# Summary of the method: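 GST-fused DNA-binding domains of P. falciparum, expressed in E. coli, were applied at about 25 μg on average for 1 h to an Agilent 4 × 180k array of primer-extended double-stranded 36-bp intergenic genomic probes and negative controls. Binding intensity is the highest Masliner-normalised natural-log median intensity across replicate spots of either probe orientation, measured with Alexa488 anti-GST antibody and a 488 nm scan.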
row,Sequence,gcPBM binding intensity (ln)
1,TATGTTTCTATATATACATGCAAGAAGAAATGTACT [TGCATGCA_site891],7.1
2,AAAAAAAAAAAAGAAAAATATATATATAAATAAATA [GTGCAC_negctrl_site569],6.98
3,ATATGTACAAATTATACACACATGTACAATTATATA [CACACA_site1253],7.32
4,ATGTCACAATTTTTCACACACAAAATTTATATACAT [CACACA_site2030],7.29
5,AATTATACTCACGTTACACACACACTAGATATATAT [CACACA_site6133],7.28
6,TTTTTTTTTTTTTTTTGTACATATATATAAAAAATA [XGTACX_site2772],7.02
7,TAATATTACATTTATTGTACTTTGTTTTTATTTTAT [XGTACX_site1605],6.81
8,CCCACAATGGTTTATATACACACTGTTGCAAATTCT [CACACA_site3066],7.01
9,ATTGAAAAAATACAATGTACATAGTAATACAAAGAA [XGTACX_site4142],7.33
10,TGTTTCTAAGAATTTACACACAAAATATTTCTACAT [CACACA_site7846],6.86
11,TAATACTTAATGAACACATGCACATATACATAGTAT [TGCATGCA_site496],8.03
12,TTAAAAATTAAAAGTAGTACATATAATATAAACATT [XGTACX_site424],6.98
13,AAAAAAAAAAATTGCACACAAAAAAAAAAAAAAAAA [CACACA_site2073],7.33
14,ATAATTATACAAAAGCGTACACGATATAAATCTACG [XGTACX_site8115],7.5
15,CTTAAATCCATAATATGTACTTAAAAAGAAAAAATA [XGTACX_site4765],7.06
16,AGACAATTTTTTAGTACACACATATAGATATATAAA [CACACA_site6832],7.39
17,TTATAAAAAAAAAAAAAAAAAAAAACCAATATAATA [CACACA_negctrl_site968],6.63
18,TTTATTCTAAAATATTAAAAATGATTTGTTTTTTCA [CACACA_negctrl_site1751],6.55
19,GTATTATAAAAAGGAAGTACATATATACATATTATA [XGTACX_site1271],6.98
20,ATATGAACATTAAAAAAGTAAGGTATTCTCCCCTCT [CACACA_negctrl_site1299],6.83
21,CATATCAAAAAAAAATGTACACGTATATACAATACA [XGTACX_site2660],6.95
22,TTTTAAAATAAAAAAATAAAAAAAGGGGAAAAAAAA [CACACA_negctrl_site847],6.67

row,Sequence,gcPBM binding intensity (ln)
1,ATATACTTATATATTGCACACATCTAATATTTTGAA [CACACA_site3165],7.15
2,TATAATATGTTTGATGGTACACGTAAACACCTTGCA [XGTACX_site1643],7.01
3,ATAACTAAATTATATTGTACAAAATAATTATATATT [XGTACX_site1188],6.91
4,TTTAATCAACAAAATCTACACACTAATATGAAATAT [CACACA_site9250],6.87
5,ATACACGTTTTACAATGTACAGAAAGTATACATAAT [XGTACX_site4585],7.35
6,GTATTTTTTTTCTTTTGTACATATATATAAAGAATA [XGTACX_site4569],7.62
7,TATTATATATATAAATGTACATATTATTTTTCTTTT [XGTACX_site8670],6.92
8,AAGAATTTTCGATTTGCACACATTTGTAAAATAAAA [CACACA_site2354],7.32
9,CAACAAAAGAAACACACACACACAAACACAAAAAAA [CACACA_site3389],7.15
10,TGTATACCTTAATATACACACATACATATATATATA [CACACA_site8370],9.13
11,GGATATATTATATGTACACACATATATAACGGATAT [CACACA_site1309],7.15
12,ATGTAATAAATACTACGTACATATATATGTGTTAAT [XGTACX_site3265],7.01
13,ATATACATATTTTTGACACACATTAGGAAAATATAT [CACACA_site4123],7.11
14,ATATATAAATATAGCATACACACAAAAAAATAAAAT [CACACA_site2332],7.11
15,TATTATTTATATGATACACACGTACATATACACATA [CACACA_site9275],7.02
16,TTCATTAAAACGAATACACACATAAATATATAAAAG [CACACA_site4824],7.06
17,AAATATATATATATTACACACTATATATTTATTTAT [CACACA_site681],7.1
18,AAAAATAAAATAAAATAAAATAAAAATAAAGAAAAA [CACACA_negctrl_site808],6.63
19,AGTAGTCTGGAGAAAAGTACACAGTATCTGGTAACA [XGTACX_site2034],6.79
20,ACAAATAAAAAAATTACACACATATATAATATATAT [CACACA_site1361],7.13
21,ATTTGACACGTATATGCACACACCCGTAAGTGTCCA [CACACA_site8891],8.08
22,TATTAACTCAATAGCGCACACTTTTAATATTTTATA [CACACA_site4973],7.33

row,Sequence,gcPBM binding intensity (ln)
1,TTATAAATTTTTAATAGTACATAAAATTAAAGGTAA [XGTACX_site760],7.21
2,ATGTGATAATTTAGGAGTACTGTCATAAGCATTTCT [XGTACX_site3091],7.05
3,TCATAAAAAGGAATCTTTAAGATATTTTATAAGCTC [XGTACX_negctrl_site18],6.63
4,TTTCTTTATTTATAATAATTTTTTATTAAAAATAGA [CACACA_negctrl_site1610],6.78
5,AGTGCATAATATTTATGTACGTATCACATATATTTT [XGTACX_site5166],9.05
6,AATAAATGTCTGTTAATGCACACGATATGTCTATAT [CACACA_site2351],7.38
7,ATGTATCGTAACAAATGTACAAGAGGATGTTTAGAC [XGTACX_site3355],7.66
8,GATATATTTTGTTATGTAGATGTTGGTAGGAATTTT [GTGCAC_negctrl_site485],7.05
9,GTATTTATATGATTAACACACATATGTGGATTAATA [CACACA_site1315],7.01
10,TATATAACTACAAGAACACACATATAAATATAAATA [CACACA_site7210],6.96
11,GTAATTAAGATATATACACACAAAGGCTATTAAATA [CACACA_site6604],6.97
12,ATATATATATATATATGTACGTAAACAAAAATTTAT [XGTACX_site6780],9.31
13,TATTGATAAAAAATATGTACATATATACATATATAT [XGTACX_site3821],7.37
14,TAATTACCATATGGTACACACATATATATCTGTATA [CACACA_site5849],6.98
15,AATAATATCTGAAAATGTACATTTTATTATAAACAT [XGTACX_site8441],7.02
16,AAGAAGAGTTATTGTAGTACATTTTTAAATGTAATA [XGTACX_site7664],6.9
17,AAGAATTATAGAAACACACATACATACAGACATACA [CACACA_site1943],6.99
18,TATTTGGGTATTTTTACACACATTAATATATATATA [CACACA_site9114],8.76
19,AAAGATAATAATATGCGTACATAAAAATATATGATA [XGTACX_site6884],7.13
20,ATAATGGAAAAAAAATATAATAATACGAAATAGGAA [TGCATGCA_negctrl_site64],7.28
21,AGTTAAATGAATCAATACATAAATATGTATATATAT [TGCATGCA_negctrl_site539],7.44
22,TTTTTTTAATAAATTTATAACAATATGATAGGTGAC [CACACA_negctrl_site1783],7.83

row,Sequence,gcPBM binding intensity (ln)
1,TGAATCAATTGTTGCTGTACATAAGGTATACAATAA [XGTACX_site5127],6.99
2,TAAATAAATACATACACACACATACCTATATTTATA [CACACA_site7466],7
3,AATATAAATATAAATATAAATATATATATATATATA [TGCATGCA_negctrl_site603],9.38
4,TTTTATAAAAACAAAAACAAAGGCACTTTCTAAAGA [XGTACX_negctrl_site130],7.12
5,ATAATGTATATTATTGCACACATATATAAAATTATG [CACACA_site8280],7.29
6,TGTATACACATATGTACACACATATAGATGTATATG [CACACA_site7447],7.02
7,AAAGACAAAAGGAATTGTACATAATATATAAAATAT [XGTACX_site2923],6.99
8,AATTTTATTTAAAGTGCATGTAAAATTAAAACTTTT [TGCATGCA_site989],9.41
9,ATATAAAATATGAGTAGTACATATTTTCTCATCTTA [XGTACX_site8595],6.84
10,GGGAAACGATTTAATACACACACGTATTATATATAT [CACACA_site1160],7.77
11,CATTTTTTGTAAAATCGTACATATACATAAAGTGGT [XGTACX_site3423],7.21
12,CACAAAAGTAAGCACGCACACACAACATGAAATAAA [CACACA_site7938],7.1
13,TATGAATTTATCTACAACATTTGAAATAAATTAAAA [CACACA_negctrl_site79],6.72
14,AATACACACCTGTGGGTGCTTATAATAAGCCACAAA,7.66
15,TATTTTTTTATTTATTGTACTTTAAAAAAAATTAAA [XGTACX_site6167],7.39
16,TAACAAATATTATTTTGTACATAATATATATATATA [XGTACX_site6898],8.45
17,TTATAAAAATATTACGCACACACAAACTTATTCATT [CACACA_site1970],7.06
18,TATATATATTAATTTATTTATTTGTTTATTTATTTA [CACACA_negctrl_site185],7.31
19,ATATATTTATATTATACACACAAAAATATTTTGTAT [CACACA_site6262],6.96
20,ATATAATAATATTATACATGCAAAATATGTTCTTCA [TGCATGCA_site115],6.95
21,AGACTATCATTTTTTTAACACACAAAAAAAATAAAA [CACACA_site9173],7.06
22,ATCGCATATACATTATATTTTATAATAATTATTTTT [GTGCAC_negctrl_site48],7.17
